Data taken from patent US20200131257A1 (YALE UNIVERSITY, published 2020).

Target: T1, R203W/L194F-mutated FGF21 (FGF21WF) (human, UniProt Q9NSA1 29-209)
T1 construct: also called FGF21 carrying a double L194F/R203W mutations
T1 chain: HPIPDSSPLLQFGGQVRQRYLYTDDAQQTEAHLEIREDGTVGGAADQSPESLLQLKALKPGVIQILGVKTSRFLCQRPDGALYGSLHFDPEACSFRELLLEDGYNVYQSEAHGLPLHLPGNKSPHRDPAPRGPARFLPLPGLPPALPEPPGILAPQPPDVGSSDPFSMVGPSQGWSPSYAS
Assay: MST: sKLB titrated into fluorescently labelled FGF21 R203W/L194F, plotted as fraction bound
From the text: Purified FGF21 was fluorescently labeled using the Monolith Protein Labeling Kit RED-NHS (NanoTemper Technologies) according to the instruction provided by the manufacturer. […] The thermophoretic movements of fl-FGF21 in each samples were monitored (LED 20%, IR laser 20%,) and the normalized fluorescence intensities (FNorm), defined as Fₕₒₜ/Fcold (where Fcold and Fₕₒₜ refer to the fluorescence intensities averaged over […] before IR laser is on and 29 s after IR laser is on, respectively), for each samples were plotted against the concentrations of sKLB. For the competition assays, the thermophoresis of fl-FGF21 was measured for samples where the concentration of fl-FGF21 and sKLB mixture was kept constant with the concentrations of GST-FGF21CT varying from 2.1 nM to 35000 nM. All the data were analyzed with the MO Affinity Analysis software (NanoTemper Technologies) provided by the manufacturer.
As endocrine FGFs play important roles in the control of metabolic processes, a variety of approaches have been utilized to develop novel therapeutics that retain (and exceed in potency) the beneficial stimulatory responses of FGF19 and or FGF21 while minimizing the side effects caused by these two hormones. […] In certain non-limiting embodiments, potency of FGF21 can be enhanced by introducing mutations into its C-terminal tail that strengthen interactions with β-Klotho. […]

B1: extracellular domain of human β-Klotho (sKLB) (receptor)
chain: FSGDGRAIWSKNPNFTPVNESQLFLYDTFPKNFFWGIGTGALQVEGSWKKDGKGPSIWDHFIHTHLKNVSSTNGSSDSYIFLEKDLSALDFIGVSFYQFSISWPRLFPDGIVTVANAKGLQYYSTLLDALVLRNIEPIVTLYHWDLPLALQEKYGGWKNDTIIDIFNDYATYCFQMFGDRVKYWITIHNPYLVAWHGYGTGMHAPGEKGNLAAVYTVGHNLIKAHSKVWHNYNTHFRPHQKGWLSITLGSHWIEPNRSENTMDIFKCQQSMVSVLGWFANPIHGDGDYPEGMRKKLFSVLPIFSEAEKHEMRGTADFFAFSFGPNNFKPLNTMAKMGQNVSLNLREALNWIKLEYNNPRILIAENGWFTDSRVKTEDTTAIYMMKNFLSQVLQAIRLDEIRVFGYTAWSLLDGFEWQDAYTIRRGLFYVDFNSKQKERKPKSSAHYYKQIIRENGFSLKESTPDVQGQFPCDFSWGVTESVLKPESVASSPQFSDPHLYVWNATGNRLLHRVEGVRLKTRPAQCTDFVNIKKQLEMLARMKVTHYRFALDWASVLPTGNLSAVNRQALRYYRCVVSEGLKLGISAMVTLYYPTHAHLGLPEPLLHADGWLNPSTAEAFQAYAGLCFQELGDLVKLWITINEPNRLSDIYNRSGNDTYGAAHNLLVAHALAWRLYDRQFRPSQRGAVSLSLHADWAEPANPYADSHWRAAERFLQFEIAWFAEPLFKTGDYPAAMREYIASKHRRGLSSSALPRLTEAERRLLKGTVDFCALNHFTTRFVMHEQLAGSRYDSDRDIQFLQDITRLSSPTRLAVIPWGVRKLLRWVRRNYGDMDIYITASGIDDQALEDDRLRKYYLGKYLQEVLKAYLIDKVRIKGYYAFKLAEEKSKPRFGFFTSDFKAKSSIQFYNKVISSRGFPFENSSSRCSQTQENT
notes: Made in HEK293-EBNA cells; also called WT sKLB; not shown: remnant of the TEV protease cleavage site / four-Gly linker left after the Fc tag was cut off
EC50 (read off the curve): ~10 nM
